# Measurements: PubChem BioAssay (NCATS)
# The inconclusive results got no clear call from the source; some entries with a clear call stand among them for comparison. For some of these results: Potencies beside an inconclusive call are fits to weak or partial responses and may not hold up. For some of these results: A note “side channel” means that the fit belongs to a control or component signal, not to the main read-out. Activity calls are given as the source filed them. Unless noted, the call rests on the fitted dose curve; in most records, active means well fitted curve in the direction sought with a large enough effect; inconclusive means small, poorly fitted or top-dose-only effect, or another doubt; inactive means no such curve, though single readings can be large; an effect the other way counts as inactive or inconclusive.
# Assays:
# [1] = Cell Viability - LYMP2-014 (AID 983); further: potency means the concentration at half of the fitted maximal effect; nearly all actives have a fitted effect of over 50% in size
# Method in brief: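 Human lymphoblastoid cells (2500/well) were pre-incubated 5 hr at 37 C, then exposed to compounds in complete medium for 24 hr at 37 C. Intracellular ATP was read by CellTiter-Glo luminescence after 30 min at room temperature; AC50 from Hill fits.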
# [2] = Cell Viability - LYMP2-016 (AID 984); conditions: LYMP2-016 lymphoblastoid cell viability, qHTS; activity change, negative = cytotoxicity: at 92.2 µM (top of the series); further: potency means the concentration at half of the fitted maximal effect; nearly all actives have a fitted effect of over 55% in size
# Method in brief: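 Cytotoxicity was scored by luminescent ATP content (CellTiter-Glo) after 24 h compound exposure at 37 C of a human lymphoblastoid line at 2500 cells/well. Concentration-response data were fitted to the Hill equation for AC50.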
# [3] = Cell Viability - LYMP2-018 (AID 985);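 further: potency means the concentration at half of the fitted maximal effect; compound exposure lasted 24 hr at 37 °C; nearly all actives have a fitted effect of over 50% in size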
# Method in brief: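 Human lymphoblastoid cells (2500/well) were pre-incubated 5 hr at 37 C, then exposed to compounds for 24 hr at 37 C in complete medium. Viability was read as intracellular ATP by CellTiter-Glo luminescence; AC50 values came from Hill-equation fits.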
# [4] = Cell Viability - LYMP2-020 (AID 986); conditions: activity change, negative = viability loss: at 92.2 µM (top of the series); further: potency means the concentration at half of the fitted maximal effect; nearly all actives have a fitted effect of over 55% in size
# Method in brief: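 Human lymphoblastoid cells, 2500/well, were pre-incubated 5 hr at 37 C, then exposed to compounds for 24 hr at 37 C in complete medium. Intracellular ATP was read by CellTiter-Glo luminescence, and AC50 was derived by Hill fitting of concentration-response data.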
# [5] = Cell Viability - LYMP2-022 (AID 987); further: potency means the concentration at half of the fitted maximal effect; nearly all actives have a fitted effect of over 55% in size
# Method in brief: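 Human lymphoblastoid cells, 2500/well, preincubated 5 hr at 37 C, then exposed to compounds over a concentration range for 24 hr at 37 C in complete medium. Viability read as intracellular ATP by CellTiter-Glo luminescence after 30 min at room temperature; AC50 from Hill fits.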
# [6] = Cell Viability - LYMP2-024 (AID 988); conditions: LYMP2-024 lymphoblastoid cell viability; activity change, negative = cytotoxicity: at 92.2 µM (top of the series); further: potency means the concentration at half of the fitted maximal effect; nearly all actives have a fitted effect of over 60% in size
# Method in brief: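 Human lymphoblastoid cells (2500/well) in complete medium were preincubated 5 hr at 37 C, then exposed to compounds for 24 hr at 37 C. Intracellular ATP was read by CellTiter-Glo luminescence; AC50 from Hill-equation fits of concentration-response data.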
# [7] = Cell Viability - LYMP2-026 (AID 989); further: potency means the concentration at half of the fitted maximal effect; nearly all actives have a fitted effect of over 50% in size
# Method in brief: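 Human lymphoblastoid cells (2500/well) in complete medium were preincubated 5 hr at 37 C, then exposed to compounds for 24 hr at 37 C. Cellular ATP was read by CellTiter-Glo luminescence; AC50 from Hill-equation fits of concentration-response data.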
# [8] = qHTS Assay for Identification of Small Molecule Inducers of Hypoxia Response (AID 2120; active means well fitted curve in the direction sought with a large enough effect in the signal ratio, with a control signal flat, not every such curve was filed as active; inconclusive means small, poorly fitted or top-dose-only effect, or a change in a side signal; inactive means no such curve, though single readings can be large or run the other way; the % refers to the signal ratio; further: potency means the concentration at half of the fitted maximal effect); conditions: hypoxia response reporter cells, beta-lactamase ratio readout; activation: at 104 µM (top of the series)
# Method in brief: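 HRE-beta-lactamase reporter in CellSensor HRE-bla ME-180 cells, 2500 cells/well in Opti-MEM with 0.5% dialyzed FBS; compounds tested as titration series, 17 h at 37 degrees C. CCF4 substrate 2.5 h at room temperature; AC50 from 460/530 nm ratio.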
# [9] = biological target: Bile acid receptor (Homo sapiens) (UniProt Q96RI1); assay: qHTS assay for small molecule antagonists of farnesoid X receptor signaling (AID 588526; calls by dose curve; further: potency means the concentration at half of the fitted maximal effect); conditions: HEK293T FXR-UAS-bla, beta-lactamase ratio, antagonist mode; activity change, negative = inhibition: at 76.7 µM (top of the series)
# Method in brief: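 Concentration-response titrations were fitted to the Hill equation for half-maximal inhibition and maximal response, with data normalised to 50 uM chenodeoxycholic acid and DMSO control wells. Cells: FXR-UAS-bla HEK293T, dialyzed FBS.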
# [10] = biological target: Bile acid receptor (Homo sapiens) (UniProt Q96RI1); assay: qHTS assay for small molecule agonists of farnesoid X receptor signaling (AID 588527; calls by dose curve; further: potency means the concentration at half of the fitted maximal effect); conditions: HEK293T FXR-UAS-bla, beta-lactamase ratio, 16 h; activation: active compounds read high
# Method in brief: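 FXR-UAS-bla HEK293T, 10% dialyzed FBS; cpds up to 92 uM titration, 16 h 37 C; CCF4 dye 2 h RT; fluorescence. Normalized to chenodeoxycholic acid 100 uM (100%) and DMSO (0%); Hill fit gives EC50, efficacy.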
# [11] = biological target: Peroxisome proliferator-activated receptor delta (Homo sapiens) (UniProt Q03181); assay: qHTS assay for small molecule antagonists of peroxisome proliferator-activated receptor delta signaling (AID 588535; active means well fitted inhibition curve with a large enough effect in the signal ratio, with a control signal flat, not every such curve was filed as active; inconclusive means small, poorly fitted or top-dose-only effect, or effect the other way, or a change in a side signal; inactive means no such curve, though single readings can be large or run the other way; the % refers to the signal ratio; further: potency means the concentration at half of the fitted maximal effect); conditions: HEK293T PPARd-UAS-bla, beta-lactamase FRET ratio, 18 h; activity change, negative = inhibition: at 76.7 µM (top of the series)
# Method in brief: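 GeneBLAzer PPAR-delta-UAS-bla HEK293T cells in medium with 2% charcoal/dextran FBS were preincubated 5 hrs at 37 C, then given compounds, incubated 18 hrs at 37 C, and read by CCF4 beta-lactamase fluorescence; IC50 from Hill fits.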
# [12] = biological target: Peroxisome proliferator-activated receptor gamma (Homo sapiens) (UniProt P37231); assay: qHTS assay for small molecule agonists of peroxisome proliferator-activated receptor gamma signaling (AID 588536; active means well fitted curve in the direction sought with a large enough effect in the signal ratio, with a control signal flat, not every such curve was filed as active; inconclusive means small, poorly fitted or top-dose-only effect, or effect the other way, or a change in a side signal; inactive means no such curve, though single readings can be large or run the other way; the % refers to the signal ratio; further: potency means the concentration at half of the fitted maximal effect); conditions: HEK293 PPARg-UAS-bla, beta-lactamase ratio, 16 h; activation: at 76.7 µM (top of the series), percent of rosiglitazone response, DMSO as zero
# Method in brief: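 PPAR-gamma-UAS-bla HEK293 cells in medium with 1% charcoal/dextran-treated FBS were exposed to compounds for 16 h at 37 C. Beta-lactamase activity was read with CCF4 substrate (405 nm excitation, 460/530 nm emission).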
# [13] = biological target: Peroxisome proliferator-activated receptor gamma (Homo sapiens) (UniProt P37231); assay: qHTS assay for small molecule antagonists of peroxisome proliferator-activated receptor gamma signaling (AID 588537; active means well fitted inhibition curve with a large enough effect in the signal ratio, with a control signal flat, not every such curve was filed as active; inconclusive means small, poorly fitted or top-dose-only effect, or effect the other way, or a change in a side signal; the % refers to the signal ratio); conditions: HEK293 PPARg-UAS-bla, beta-lactamase ratio, antagonist mode; activity, negative = inhibition: at 76.8 µM (top of the series)
# Method in brief: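 PPAR-gamma-UAS-bla HEK293 cells (3000/well, 1% charcoal/dextran-stripped FBS) were preincubated 6-6.5 h at 37 C, given titrated compounds, then stimulated with 50 nM rosiglitazone for 16 h. Beta-lactamase activity was read with CCF4 dye; IC50 came from Hill fits.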
# [14] = biological target: Vitamin D3 receptor (Homo sapiens) (UniProt P11473); assay: qHTS assay for small molecule antagonists of vitamin D receptor signaling (AID 588541; calls by dose curve;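 further: receptor activated by calcitriol during compound treatment; on the % scale 0 is the no-effect control and ±100 the full control effect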); conditions: HEK293T VDR-UAS-bla, beta-lactamase ratio, antagonist mode; activity change, negative = inhibition: at 76.7 µM (top of the series)
# [15] = biological target: Vitamin D3 receptor (Homo sapiens) (UniProt P11473); assay: qHTS assay for small molecule agonists of vitamin D receptor signaling (AID 588543; calls by dose curve; further: potency means the concentration at half of the fitted maximal effect); conditions: HEK293T VDR-UAS-bla, beta-lactamase ratio, 16 h; activation: at 76.8 µM (top of the series)
# Method in brief: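 Agonist-mode beta-lactamase reporter: HEK293T VDR-UAS-bla cells in charcoal-stripped 2% FBS, compound series 16 h 37 C, CCF4 2 h RT. EC50 from Hill fit, scaled against DMSO and 50 nM calcitriol control.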
# [16] = biological target: Retinoic acid receptor RXR-alpha (Homo sapiens) (UniProt P19793); assay: qHTS assay for small molecule agonists of retinoid X receptor alpha signaling (AID 588544; calls by dose curve; further: potency means the concentration at half of the fitted maximal effect); conditions: HEK293T RXRa-UAS-bla, beta-lactamase reporter, 18 h; activation: at 76.7 µM (top of the series) unless noted
# [17] = biological target: Retinoic acid receptor RXR-alpha (Homo sapiens) (UniProt P19793); assay: qHTS assay for small molecule antagonists of retinoid X receptor alpha signaling (AID 588546; active means well fitted inhibition curve with a large enough effect in the signal ratio, with a control signal flat, not every such curve was filed as active; inconclusive means small, poorly fitted or top-dose-only effect, or effect the other way, or a change in a side signal; inactive means no such curve, though single readings can be large or run the other way; the % refers to the signal ratio; further: potency means the concentration at half of the fitted maximal effect); conditions: HEK293T RXRa-UAS-bla, beta-lactamase ratio, antagonist mode
# Method in brief: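 Beta-lactamase reporter inhibition, read as CCF4 fluorescence ratio (ex 405, em 460/530 nm) after 2 h at RT. HEK293T UAS-bla cells, 2500/well, were stimulated with 9-cis-RA at 500 or 100 nM final alongside test compound for 18 h at 37 C.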
# [18] = biological target: Thyroid hormone receptor beta (Homo sapiens) (UniProt P10828); assay: qHTS assay for small molecule antagonists of thyroid hormone receptor beta signaling (AID 588547; active means well fitted inhibition curve with a large enough effect in the signal ratio, with a control signal flat, not every such curve was filed as active; inconclusive means small, poorly fitted or top-dose-only effect, or effect the other way, or a change in a side signal; the % refers to the signal ratio; further: potency means the concentration at half of the fitted maximal effect); conditions: TR-UAS-bla HEK293, beta-lactamase ratio, antagonist mode, 18 h
# Method in brief: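 TR-UAS-bla GripTite HEK293 cells in 2% charcoal/dextran FBS medium were preincubated 4 h at 37 C, given compound (0.59 nM to 92 uM) plus 0.4 nM T3 (final) for 18 h, then CCF4 for 2 h at RT; Hill fit gave IC50.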
# [19] = biological target: Voltage-gated inwardly rectifying potassium channel KCNH2 (Homo sapiens) (UniProt Q12809); assay: qHTS Assay for Small Molecule Inhibitors of the Human hERG Channel Activity (AID 588834);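 further: potency means the concentration at half of the fitted maximal effect; lower thallium flux fluorescence means stronger hERG block; nearly all actives have a fitted effect of over 50% in size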
# Method in brief: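 Kinetic FDSS fluorescence; U2OS + hERG BacMam (~100 virus particles/cell); FluxOR Tl+ flux; ~10 min cpd; AC50 (Hill).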
# [20] = qHTS assay for small molecule agonists of the antioxidant response element (ARE) signaling pathway (AID 651741; active means well fitted activation curve with a large enough effect in the signal ratio; inconclusive means small, poorly fitted or top-dose-only effect, or effect the other way, or a change in a side signal; the % refers to the signal ratio; further: potency means the concentration at half of the fitted maximal effect); conditions: HepG2 ARE-bla reporter, beta-lactamase FRET ratio, 16 h; activation: at 96 µM (top of the series) unless noted
# Method in brief: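 ARE-bla HepG2 cells (beta-lactamase reporter under ARE control) were plated at 2,000 cells/well, preincubated 5 h at 37 C/5% CO2, then treated with DMSO-dissolved compounds for 16 h at 37 C; LiveBLAzer B/G FRET substrate added, fluorescence read after 2 h at room temperature.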
# [21] = qHTS assay for small molecule disruptors of the mitochondrial membrane potential - 5 hr assay (AID 651755; calls by dose curve; further: potency means the concentration at half of the fitted maximal effect; nearly all actives have a fitted effect of over 40% in size); conditions: JC-1-type ratio dye; ratio change, negative = disruption: at 92.2 µM (top of the series)
# Method in brief: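 HepG2 cells, attached overnight at 37C, were exposed to compound or DMSO for 5 hr at 37C, 5% CO2. Mito-MPS dye was then added for 30 min, and fluorescence read at 490/535 nm (monomers) and 540/590 nm (aggregates).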
# [22] = qHTS assay to identify small molecules that stimulate interleukin-8 (IL-8) secretion (AID 651758; active means well fitted activation curve with a large enough effect in the signal ratio; inconclusive means small, poorly fitted or top-dose-only effect, or effect the other way, or a change in a side signal; the % refers to the signal ratio; further: potency means the concentration at half of the fitted maximal effect); conditions: HTRF ratio (665/615); activation: at 92.2 µM (top of the series)
# Method in brief: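 THP-1, 2000 cells/well; cpd 16 h, 37 C; add cryptate + XL665 anti-IL-8 Abs; RT 1-3 h; TR-FRET read.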
# [23] = biological target: Nuclear receptor ROR-gamma (Homo sapiens) (UniProt P51449); assay: qHTS assay for small molecule antagonists of the retinoid-related orphan receptor gamma (ROR-gamma) signaling pathway (AID 651802); further: potency means the concentration at half of the fitted maximal effect; nearly all actives have a fitted effect of over 60% in size
# Method in brief: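 CHO cells carrying TET-inducible ROR-gamma and an ROR response element–luciferase reporter were exposed to compound, then induced with doxycycline. After 16hr at 37C, luminescence was read; lower signal indicates antagonism.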
# [24] = qHTS assay for small molecule agonists of the antioxidant response element (ARE) signaling pathway measured by Nrf2-dependant transcriptional activity (AID 720636; active means well fitted curve in the direction sought with a large enough effect in the repeat runs; inconclusive means weak or mixed curves; inactive means no such curve, though single readings can be large; an effect the other way counts as inactive or inconclusive; further: potency means the concentration at half of the fitted maximal effect)
# Method in brief: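 Quantitative HTS format in HepG2 cells stably expressing an ARE-luciferase reporter; 16 hr compound treatment at 37 C, luciferase signal detected with ONE-Glo.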
# [25] = qHTS assay for small molecule antagonists of the retinoid-related orphan receptor gamma (ROR-gamma) signaling pathway - cell viability counter screen (AID 720652; active means well fitted curve in the direction sought with a large enough effect in the repeat runs; inconclusive means weak or mixed curves; inactive means no such curve, though single readings can be large; an effect the other way counts as inactive or inconclusive;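 further: potency means the concentration at half of the fitted maximal effect; compound exposure lasted 16 hr before ATP read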)
# Method in brief: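 Counter screen in CHO cells carrying TET-inducible ROR-gamma and an ROR response element-luciferase reporter; cells plated 5 hr, compound pinned, doxycycline added, then 16 hr at 37 C. Viability read as intracellular ATP by CellTiter-Glo luminescence.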
# Tags describe the fitted curve by direction and shape or compound fluorescence and quenching.
# Chain of UniProt P19793 (P19793 whole entry, looked up): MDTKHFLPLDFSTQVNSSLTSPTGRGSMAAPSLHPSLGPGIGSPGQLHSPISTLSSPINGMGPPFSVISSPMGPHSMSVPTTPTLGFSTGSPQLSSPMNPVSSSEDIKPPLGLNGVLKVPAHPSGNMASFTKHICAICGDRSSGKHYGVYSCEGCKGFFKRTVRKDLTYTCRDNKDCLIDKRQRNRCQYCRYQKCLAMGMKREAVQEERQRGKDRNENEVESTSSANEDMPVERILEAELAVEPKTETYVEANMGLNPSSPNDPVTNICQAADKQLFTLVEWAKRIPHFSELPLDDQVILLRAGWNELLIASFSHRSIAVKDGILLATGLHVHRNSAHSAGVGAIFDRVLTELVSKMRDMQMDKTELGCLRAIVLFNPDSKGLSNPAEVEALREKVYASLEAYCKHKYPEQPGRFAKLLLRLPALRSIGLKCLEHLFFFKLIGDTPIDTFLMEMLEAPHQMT
# Chain of UniProt P10828 (P10828 whole entry, looked up): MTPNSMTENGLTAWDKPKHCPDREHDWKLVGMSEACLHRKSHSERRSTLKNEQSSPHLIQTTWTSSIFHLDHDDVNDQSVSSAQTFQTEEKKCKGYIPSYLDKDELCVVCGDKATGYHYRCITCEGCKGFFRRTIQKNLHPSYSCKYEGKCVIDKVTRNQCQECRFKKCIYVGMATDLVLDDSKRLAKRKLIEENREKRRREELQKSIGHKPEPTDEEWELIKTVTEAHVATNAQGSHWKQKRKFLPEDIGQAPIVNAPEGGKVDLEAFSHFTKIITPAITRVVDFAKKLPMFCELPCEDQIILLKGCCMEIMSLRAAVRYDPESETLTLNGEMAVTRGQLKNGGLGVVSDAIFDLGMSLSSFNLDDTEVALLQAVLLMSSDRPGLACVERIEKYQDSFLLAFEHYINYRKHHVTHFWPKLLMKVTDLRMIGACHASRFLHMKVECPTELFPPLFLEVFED
# Chain of UniProt Q12809 (Q12809 whole entry, looked up): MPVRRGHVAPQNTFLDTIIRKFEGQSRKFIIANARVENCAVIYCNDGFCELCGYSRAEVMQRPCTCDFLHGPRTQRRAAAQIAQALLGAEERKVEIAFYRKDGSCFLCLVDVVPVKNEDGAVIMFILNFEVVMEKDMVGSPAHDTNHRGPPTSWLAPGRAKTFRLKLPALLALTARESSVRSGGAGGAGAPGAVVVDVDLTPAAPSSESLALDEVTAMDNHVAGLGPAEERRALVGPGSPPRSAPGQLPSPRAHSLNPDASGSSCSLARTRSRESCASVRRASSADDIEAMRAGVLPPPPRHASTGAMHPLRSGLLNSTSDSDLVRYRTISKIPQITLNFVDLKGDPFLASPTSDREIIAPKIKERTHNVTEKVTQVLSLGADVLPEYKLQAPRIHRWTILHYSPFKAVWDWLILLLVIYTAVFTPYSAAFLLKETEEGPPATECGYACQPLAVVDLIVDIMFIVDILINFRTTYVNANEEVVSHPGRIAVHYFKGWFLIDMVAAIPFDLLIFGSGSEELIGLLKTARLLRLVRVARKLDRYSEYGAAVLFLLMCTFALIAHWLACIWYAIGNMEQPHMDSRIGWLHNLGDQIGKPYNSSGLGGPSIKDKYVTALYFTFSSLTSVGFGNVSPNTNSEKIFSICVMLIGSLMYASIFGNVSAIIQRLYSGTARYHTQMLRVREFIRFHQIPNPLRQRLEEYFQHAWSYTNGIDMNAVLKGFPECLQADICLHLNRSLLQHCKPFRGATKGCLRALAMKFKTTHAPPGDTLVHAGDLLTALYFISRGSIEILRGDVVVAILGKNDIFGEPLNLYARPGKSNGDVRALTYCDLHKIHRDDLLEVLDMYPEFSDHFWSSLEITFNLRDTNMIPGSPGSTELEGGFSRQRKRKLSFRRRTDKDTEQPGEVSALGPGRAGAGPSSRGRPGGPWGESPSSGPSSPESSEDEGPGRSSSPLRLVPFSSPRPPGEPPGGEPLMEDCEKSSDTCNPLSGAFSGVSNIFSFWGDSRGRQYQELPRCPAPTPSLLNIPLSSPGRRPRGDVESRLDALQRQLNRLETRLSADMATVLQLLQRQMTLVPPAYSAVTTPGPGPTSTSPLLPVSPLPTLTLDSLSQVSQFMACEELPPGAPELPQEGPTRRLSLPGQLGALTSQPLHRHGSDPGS
# Chain of UniProt Q03181 (Q03181 whole entry, looked up): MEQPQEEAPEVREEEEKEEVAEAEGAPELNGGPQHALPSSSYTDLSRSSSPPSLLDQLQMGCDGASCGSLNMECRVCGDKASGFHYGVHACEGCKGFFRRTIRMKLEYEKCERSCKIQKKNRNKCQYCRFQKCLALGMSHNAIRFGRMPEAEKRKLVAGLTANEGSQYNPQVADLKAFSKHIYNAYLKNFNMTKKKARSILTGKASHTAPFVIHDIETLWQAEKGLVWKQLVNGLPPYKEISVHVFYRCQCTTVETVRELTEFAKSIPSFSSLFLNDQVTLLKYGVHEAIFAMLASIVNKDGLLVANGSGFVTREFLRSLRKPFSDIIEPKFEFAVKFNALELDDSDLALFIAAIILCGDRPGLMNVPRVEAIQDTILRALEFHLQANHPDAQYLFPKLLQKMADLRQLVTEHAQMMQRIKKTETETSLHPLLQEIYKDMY
# Chain of UniProt P51449 (P51449 whole entry, looked up): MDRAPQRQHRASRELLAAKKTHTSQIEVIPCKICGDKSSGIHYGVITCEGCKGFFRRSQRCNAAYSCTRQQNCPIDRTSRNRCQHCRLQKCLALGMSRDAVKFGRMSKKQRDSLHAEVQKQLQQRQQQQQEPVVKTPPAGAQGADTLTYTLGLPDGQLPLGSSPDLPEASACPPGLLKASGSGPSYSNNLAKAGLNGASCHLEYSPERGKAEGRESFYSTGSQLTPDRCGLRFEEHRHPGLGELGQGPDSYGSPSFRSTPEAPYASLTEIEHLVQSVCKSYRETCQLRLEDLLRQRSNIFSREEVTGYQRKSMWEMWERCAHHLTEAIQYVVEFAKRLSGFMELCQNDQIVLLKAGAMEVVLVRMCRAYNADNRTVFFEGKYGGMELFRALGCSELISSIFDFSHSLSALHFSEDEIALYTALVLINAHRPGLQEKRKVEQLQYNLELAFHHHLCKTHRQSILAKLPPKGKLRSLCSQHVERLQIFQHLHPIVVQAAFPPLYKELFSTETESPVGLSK
smiles,measurement,setting,value
Oc1ccc2cc(SSc3ccc4cc(O)ccc4c3)ccc2c1,Potency,[1],"inconclusive: 50.1 µM [cytotoxic, partial curve, poor fit]"
same,Potency,[2],"inconclusive: 63.1 µM [cytotoxic, partial curve, poor fit]"
same,Potency,[3],"inconclusive: 39.8 µM [cytotoxic, partial curve]"
same,Potency,[4],"inconclusive: 50.1 µM [cytotoxic, partial curve, poor fit]"
same,Potency,[5],"inconclusive: 39.8 µM [cytotoxic, partial curve, poor fit]"
same,Potency,[6],"inconclusive: 50.1 µM [cytotoxic, partial curve, poor fit]"
same,Potency,[7],"inconclusive: 79.4 µM [cytotoxic, single point]"
same,Potency,[8],"inconclusive: 39.8 µM [side channel, falling, partial curve]"
same,Potency,[9],"inconclusive: 50.1 µM [side channel, rising, partial curve, poor fit]"
same,Potency,[10],"inconclusive: 28.2 µM [side channel, rising, single point]"
same,Potency,[11],"inconclusive: 31.6 µM [fluorescent, side channel, partial curve, poor fit]"
same,Potency,[12],"inconclusive: 35.5 µM [cytotoxic, side channel, partial curve]"
same,Potency,[13],"inconclusive: 12.6 µM [cytotoxic, side channel, full curve, poor fit]"
same,"activity change, negative = inhibition",[14],inconclusive: -30.9%
same,Potency,[15],"inconclusive: 25.1 µM [side channel, rising, single point]"
same,Potency,[16],"inconclusive: 14.1 µM [side channel, rising, full curve]"
same,Potency,[17],"inconclusive: 28.2 µM [side channel, rising, partial curve, poor fit]"
same,Potency,[18],"inconclusive: 31.6 µM [side channel, rising, partial curve, poor fit]"
same,Potency,[19],active: 44.7 µM
same,Potency,[20],active: 13.3 µM
same,Potency,[21],active: 42.2 µM
same,Potency,[22],"inconclusive: 75 µM [inhibitor, single point]"
same,Potency,[23],"inconclusive: 33.5 µM [inhibitor, full curve, poor fit]"
same,Potency,[24],"inconclusive: 66.8 µM [activator, partial curve, poor fit]"
same,Potency,[25],"inconclusive: 29.8 µM [cytotoxic, partial curve, poor fit]"
